Test results: the DeepSol protein solubility set

Experiment: soluble on expression in E. coli; label from the status in PepcDB or PDB records

Sequence: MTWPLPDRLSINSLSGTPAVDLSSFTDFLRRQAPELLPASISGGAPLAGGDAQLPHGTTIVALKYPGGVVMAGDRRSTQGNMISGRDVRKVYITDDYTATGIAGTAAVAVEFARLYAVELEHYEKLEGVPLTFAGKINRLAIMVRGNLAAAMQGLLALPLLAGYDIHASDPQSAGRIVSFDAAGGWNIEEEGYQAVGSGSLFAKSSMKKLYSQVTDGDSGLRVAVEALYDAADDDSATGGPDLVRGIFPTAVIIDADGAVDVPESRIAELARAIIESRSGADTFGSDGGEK
- soluble on expression in E. coli: soluble
